The results in this text go back to PubChem BioAssay (NCI).

Several values for one entry are separate records, joined by “and”; a condition that tells them apart may be missing. Equal entries are not always repeated.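 Dose response: 5 concentrations. Exposure: 48 h. Format: 96-well plates. Endpoint: linear interpolation; highest concentration if not reached. The concentration for 50% growth inhibition is given as GI50. TGI: concentration producing complete growth inhibition.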

For the assay, the system named is NCI-H322M lung. The assay can be described thus: inhibition of tumour cell growth, NCI panel, 48 h.

As for `Cc1c(O)c(=O)ccn1C1OC(CO)C(O)C1O` (configuration not stated), the TGI is greater than 100 µM.

On to `COC(=O)c1ccc(=O)c2nc3/c(=C/O)c(O)cc(=O)c3[nH]c12`, for which the GI50 is 1.27 µM; the TGI is 18.8 µM and 17.9 µM.

The molecule `O=c1c2cc(Br)ccc2oc2nc3n(c(=O)c12)CCCS3` gave a TGI greater than 100 µM.

With `OCCCSc1ccccc1SCCCO`, the TGI was greater than 100 µM.

`CCCCCCCCCCCCCC1=NCC[N+]1(CCO)Cc1ccccc1` (configuration not stated): the GI50 was 1.68 µM and the TGI was determined as 3.34 µM.

For the molecule `NC(=O)c1[nH]nc(C2OC(CO)C(O)C2O)c1O` (configuration not stated), the TGI came out at 3720 µM.

In turn, `C=C1C(=O)OC2/C=C(\C)C(O)CC(O)C(C)(O)CC(OC(=O)/C(C)=C/C)C12` (configuration not stated) displayed a TGI greater than 100 µM.

Consider `COC(=O)C1=C(C(=O)OC)C23C=CC=CC24C(C(=O)OC)=C(C(=O)OC)C4C1C3` (configuration not stated), for which the TGI was greater than 100 µM.

As for `C[n+]1c2ccccc2c(CNC(CCC(N)=O)C(=O)O)c2ccccc21` (configuration not stated), the TGI was 15.6 µM.

`C=CC1OC(CCCOC(=O)C(C)(C)C)O[C@@H]1CC` (some centres not stated) displayed a TGI greater than 100 µM.

Turning to `CN1CCN(CC(=O)Nc2ccc3ncnc(Nc4ccc(Oc5cccc(C(F)(F)F)c5)c(Cl)c4)c3c2)CC1`, the GI50 was 1.29 µM and the TGI amounted to 2.57 µM.

For the molecule `CCCCCCCCCCCCCCCCCCNc1ccn(C2OC(COP(=O)(O)O)C(O)C2O)c(=O)n1` (configuration not stated), the TGI was greater than 100 µM.

Take `COc1cc2c3c(n(CCCN4CCN(C)CC4)c(=O)c2cc1OC)-c1cc2c(cc1C3=O)OCO2`: the GI50 was 15.6 µM and the TGI was determined as 33.4 µM.

As to `O=[N+]([O-])c1ccc(Cl)cc1C1ON=C(c2ccccc2)N1C12CC3CC(CC(C3)C1)C2` (configuration not stated), the TGI is greater than 100 µM.

For `COC(=O)[C@]12CC[C@@H](C)[C@H](C)[C@@H]1C1=CC[C@@H]3[C@@]4(C)C(C=O)=C[C@@](C)(COC(C)=O)[C@@H]4[C@H](O)C[C@@]3(C)[C@]1(C)CC2`, the GI50 is 3.88 µM and the TGI was determined as 16.6 µM.

Consider `CCC(C(=O)[O-])C(=O)[O-].CCC(C(=O)[O-])C(=O)[O-].N.N.NCCCCCN.[Pt+4].[Pt+4]`, for which the GI50 is greater than 100 µM and the TGI was greater than 100 µM.

Regarding `C=C(CN(CC(=C)C(=O)c1ccccc1)C(C)(C)C)C(=O)c1ccccc1`, the TGI was greater than 74.3 µM.

With `CC(C)(C)OC(=O)NCCCCCCCCn1c2c(c3ccccc3c1=O)C(=O)c1ccccc1-2`, the GI50 was greater than 21.6 µM and the TGI was greater than 50 µM.

In turn, `C(CCc1nnc2c(n1)CCCC2)Cc1nnc2c(n1)CCCC2` came in with a TGI greater than 100 µM.

`COc1nn(Cc2ccccc2F)c2ccc([N+](=O)[O-])cc12` registered a TGI greater than 100 µM.

`NCCNCC(O)CO` (configuration not stated): the TGI was greater than 100 µM.

Turning to `CC(=O)NNc1nc(C)c(C(/C=C/c2ccc(Cl)cc2)=N\NS(=O)(=O)c2ccc(C)cc2)s1`, the TGI was greater than 100 µM.

For `COC(=O)C1=NN2c3ccccc3C(=O)OCCC2C1` (configuration not stated), the TGI is greater than 100 µM.

For `CC(CN)[C@@H]1CC[C@]2(CO)CC[C@]3(C)[C@H](CC[C@@H]4[C@@]5(C)CCC(NCCO)C(C)(C)[C@@H]5CC[C@]43C)[C@@H]12` (some centres not stated), the GI50 was 2.4 µM and the TGI turned out to be 6.38 µM.

Molecule `Nc1nc2c(ncn2CCOC(c2ccccc2)P(=O)(O)O)c(=O)[nH]1` (configuration not stated) yielded a TGI greater than 100 µM.

Molecule `Cc1ccc(S(=O)(=O)CNC(=S)CCCC(=S)NCS(=O)(=O)c2ccc(C)cc2)cc1` came in with a TGI greater than 100 µM.

Regarding `COc1cc(-c2oc3c(OC)c(OC)cc(O)c3c(=O)c2OC)ccc1O`, the TGI amounted to 42.1 µM.

For the molecule `NC(=O)c1csc(C2C=CC(CO)O2)n1` (configuration not stated), the TGI was greater than 100 µM.

Consider `O=C(O)c1cc2ccccc2c(N=Nc2c([N+](=O)[O-])cc([N+](=O)[O-])cc2S(=O)(=O)O)c1O`, for which the TGI is greater than 100 µM.

In turn, `CC(C)CCCC(C)[C@H]1CC[C@H]2[C@@H]3CC[C@H]4C[C@@H](CCC=C(c5cc(Cl)c(O)c(C(=O)OC(C)(C)C)c5)c5cc(Cl)c(O)c(C(=O)OC(C)(C)C)c5)CC[C@]4(C)[C@H]3CC[C@]12C` (some centres not stated) returned a TGI greater than 50 µM.

Molecule `COC(=O)c1ccccc1NC(=O)C(=O)CC(=O)c1ccccc1NC1=CC(=O)C(=O)c2ccccc21` had a TGI of 35.4 µM.

Molecule `NC(=O)c1n[nH]n(-c2ccccc2)c1=O` registered a TGI greater than 100 µM.

`CN1CCN(c2ccc(-c3cnc4c(-c5csc6ccccc56)cnn4c3)cc2)CC1`: the GI50 was 7.33 µM and the TGI was greater than 15 µM.
